Results published in PubChem BioAssay AID938 (National Center for Advancing Translational Sciences (NCATS), 2007).
The whole screen tested about 73,000 compounds, of which about 1,800 (2.5%) were called active. Inconclusive means that the source gave no clear call. Such entries were picked first, then a sample of the others. Calls follow the shape of the dose curve; as a rule, active = well fitted activation curve with a large enough effect; inconclusive = small, poorly fitted or top-dose-only effect; inactive = no such curve, though single readings can be large or run the other way. No potency is given beside an inconclusive call; the fits are too rough.
Potency is read from the fitted curve at half-maximal effect; tags tell the direction and shape of the fitted curve.

Experiment: qHTS Assay for Agonists of the Thyroid Stimulating Hormone Receptor: Activators of Intracellular cAMP Concentrations in Parental HEK 293; also: nearly all actives have a fitted effect of over 55% in size; as to activation: % of control where 0% means no effect
Conditions: parental HEK293 CNG cAMP sensor, membrane potential fluorescence; activation: at 57.1 µM (top of the series) unless noted
In short: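 Parental HEK 293 cells stably expressing a cAMP-gated CNG channel were loaded with membrane potential dye containing 100 uM RO 20-1724 for 60 min. Compound added for 30 min; depolarization read as fluorescence intensity at 590 nm.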
For CCC(C)(C)NC(=O)CN(C(=O)c1snc(C(N)=O)c1N)c1ccc2c(c1)OCO2, the Potency was inconclusive [activator, full curve, poor fit].
In the case of CCn1c(Cn2nnc(-c3ccccc3)n2)nnc1SCC(=O)Nc1ccccc1, the Potency is reported as inconclusive [activator, single point].
In the case of Cn1cc(/C=N/n2cnc3scc(-c4ccccc4)c3c2=O)c2ccccc21, the “activation” value is reported as inactive: 17.6%.
In the case of [N-]=[N+]=N[C@@H]1[C@H](O)[C@H](CO)O[C@@H]1n1cnc2c(N)ncnc21, the activation is reported as inactive: 0.485% [at 11.4 µM].
For CCOC(=O)c1oc2ccccc2c1CSc1nnnn1-c1ccc(C)cc1, the Potency was active: 7.94 µM.
For Cc1cc(C)cc(NC(=O)N2CCC(NC(=O)c3ccc(F)cc3)CC2)c1, the Potency was inconclusive [activator, single point].
With Cc1ccc2oc(=O)c3cc(C(=O)NCc4ccco4)sc3c2c1 the Potency was inconclusive [activator, partial curve].
With CC(=O)NCCNc1ncnc2ccc(-c3ccccc3C(F)(F)F)cc12 the Potency was inconclusive [activator, partial curve].
With COc1cccc(-c2nccc(NCc3ccccc3OC)n2)c1 the “activation” value was inactive: 29%.
With CCN(CC)c1ccc(NC(=O)c2cncc(Br)c2)cc1 the “activation” value was inactive: -31.2%.
With Cc1cc(C(=O)Nc2ccc3c(c2)OCO3)cs1 the “activation” value was inactive: 16.2%.
In the case of O=c1n(Cc2ccccc2)c2cc(Cl)cnc2n1Cc1ccccc1, the Potency is reported as inconclusive [activator, partial curve].
For CCOC(=O)C1CCN(C(=O)c2cc3c(-c4ccc(OC)c(OC)c4)nn(C)c3s2)CC1, the “activation” value was inactive: -7.71%.
For O=C(O)C/C=C\CC(=O)O, the activation was inactive: -0.0908% [at 11.4 µM].
For O=c1c(-c2cccs2)nc2cncnc2n1Cc1ccccc1, the “activation” value was inactive: -4.36%.
In the case of O=C(CC1COc2ccccc2O1)NC1CCCCC1 (centres undefined), the Potency is reported as inconclusive [activator, partial curve].
With Cc1cc(C)c2[nH]c(=O)c(C(c3nnnn3CC3CCCO3)N3CCC(C)CC3)cc2c1 (centres undefined) the Potency was inconclusive [activator, single point].
In the case of CCSc1ccccc1C(=O)Nc1cc(C)on1, the “activation” value is reported as inactive: 6.16%.
With Cc1occc1-c1nnc(SCC(=O)NCCc2ccccc2)n1Cc1ccccc1 the Potency was active: 20 µM.
With NC(N)=NC[C@H](N)C(=O)O the Potency was inconclusive [activator, single point].
For CCCn1c(C)nc2c(N(C)CCN(C)C)nc(C)nc21, the “activation” value was inactive: 8.85%.
With Cc1cccn2c(=O)c3cc(C#N)c(=N)n(Cc4cccnc4)c3nc12 the “activation” value was inactive: 1.9%.
In the case of CCN(CC)S(=O)(=O)c1cccc(-c2nnc(SCC#N)n2Cc2ccccc2)c1, the Potency is reported as inconclusive [activator, partial curve].
In the case of COc1ccc(NC(=O)CSc2nnc(Cc3cccn3C)n2CCc2ccccc2)c(OC)c1, the Potency is reported as inconclusive [activator, single point].
With N#Cc1nc(COc2ccccc2)oc1N1CCN(c2cccc(Cl)c2)CC1 the Potency was inconclusive [activator, partial curve].
For C#CCCCO/N=C1/C[C@@H](O)[C@@H](O)[C@@H]2[C@H]3C(=O)N(c4ccc(F)cc4F)C(=O)[C@@H]3CC[C@@H]12, the activation was inactive: -8.89% [at 11.4 µM].
For CCCn1c(-c2ccc(F)cc2)nc2c(NCCCN3CCCCC3C)nc(C)nc21 (centres undefined), the Potency was inconclusive [activator, partial curve].
In the case of CC1(C)CNC(=O)c2sc(N3CCCCC3)nc2C1, the Potency is reported as active: 20 µM.
For O=C(Nc1cccc(F)c1)N1CCCC2(CCN(C(=O)c3cnccn3)CC2)C1, the Potency was inconclusive [activator, partial curve].
With O[C@H](c1cc(C(F)(F)F)nc2c(C(F)(F)F)cccc12)[C@H]1CCCCN1 the Potency was inconclusive [activator, single point].
With FC(F)(F)c1cc(CO[C@H]2CCCN[C@H]2c2ccccc2)cc(C(F)(F)F)c1 the Potency was active: 20 µM.
For COc1ccc(CN(Cc2ccncc2)C(=O)CCC(=O)O)cc1, the Potency was inconclusive [activator, partial curve, poor fit].
With Cc1cccc(OCCOC(=O)C2CCN(S(=O)(=O)c3cccs3)CC2)c1 the Potency was inconclusive [activator, partial curve].
In the case of C=CCn1c(SCc2c(C)noc2C)nnc1C1COc2ccccc2O1 (centres undefined), the Potency is reported as inconclusive [activator, partial curve].
For O=S(=O)(c1ccc(Cl)c(F)c1)N1CCC(c2nc(-c3ccncc3)no2)CC1, the Potency was inconclusive [activator, single point].
In the case of COC(=O)c1ccc(Cl)c(NC(=O)CN2CCOCC2)c1, the “activation” value is reported as inactive: 6.54%.
In the case of O=C(NCCCn1ccnc1)c1ccco1, the Potency is reported as inconclusive [activator, partial curve].
In the case of O=C(c1ccco1)N1CCC[C@@]2(CCN(c3cccc(-c4ccccc4)c3)C2)C1, the Potency is reported as inconclusive [activator, partial curve].
In the case of Cc1ccc(S(=O)(=O)N2CCOCC2)cc1C(=O)NC1CCCCC1, the Potency is reported as inconclusive [activator, partial curve].
For CCOC(=O)CCc1nc2ccccc2[nH]1, the “activation” value was inactive: 0.756%.
In the case of Cc1ccc(N2CC(C(=O)Nc3cc(C)ccc3F)CC2=O)cc1 (centres undefined), the Potency is reported as inconclusive [activator, single point].
In the case of CCCCO, the Potency is reported as “inactive”.
In the case of Cn1c(=O)c2c(nc(NC3CCCCC3)n2Cc2ccccc2)n(C)c1=O, the Potency is reported as inconclusive [activator, single point].
With Cn1c2ccccc2c2ncn(CCC3=CCCCC3)c(=O)c21 the Potency was inconclusive [activator, single point].
With CCCC[C@@H]1C[C@H]1C(NC(=O)c1cccs1)c1ccc(C(F)(F)F)cc1 (some centres undefined) the Potency was inconclusive [activator, partial curve].
With COc1ccccc1NC(=O)CN1CCC(n2nnc3cc(F)ccc32)CC1 the “activation” value was inactive: 20.2%.
With Clc1ccccc1Cn1nnc2c(Nc3ccccc3)ncnc21 the Potency was inconclusive [activator, single point].
For O=C(CSc1nc(-c2ccco2)cc(C(F)(F)F)n1)NC1CCCC1, the Potency was inconclusive [activator, single point].
For COC(=O)CC1C(=O)NCCN1C(=O)CSc1nnc(Nc2ccc(OC)cc2)s1 (centres undefined), the “activation” value was inactive: 5.31%.
In the case of CCCCC/C=C\C[C@H](O)/C=C\c1cccc(C[C@H](O)CCCCO)n1, the “activation” value is reported as inactive: 11.4%.
With Cc1noc(/C=C/c2ccco2)c1S(=O)(=O)N1CCC(C(=O)N2c3ccccc3CC2C)CC1 (centres undefined) the Potency was inconclusive [activator, single point].
For COC(=O)c1ccc(CSc2nnc3sc4ccccc4n23)o1, the Potency was inconclusive [activator, single point].
In the case of O=C(CN1C(=O)C2C3C=CC(C3)C2C1=O)Nc1cccc2c1CCCC2 (centres undefined), the Potency is reported as inconclusive [activator, partial curve].
With CCCn1c(-c2ccc(OC)cc2)nc2nc3ccccc3nc21 the Potency was inconclusive [activator, partial curve].
With CCOC(=O)c1c(C)c(C(=O)N2CCCCCC2)c(C)n1C the Potency was inconclusive [activator, single point].
For COc1ccc(NC(=O)C23CCC(C2)C(C)(C)C3=O)cc1 (centres undefined), the Potency was inconclusive [activator, single point].
With COc1ccc(Cc2nc(-c3ccc(-n4cccc4)cc3)no2)cc1OC the Potency was inconclusive [activator, single point].
With CCCc1cc(N2CCCC2)n2nc(C)c(-c3ccccc3)c2n1 the Potency was inconclusive [activator, partial curve].
With CCN1c2ccccc2-c2nc3ccccc3n2C1c1ccncc1 (centres undefined) the Potency was active: 20 µM.
With Cc1noc(C)c1C(=O)OCC(=O)NCCc1ccc(Cl)cc1 the “activation” value was inactive: 16.1%.
In the case of O=C(NC1=NCCS1)c1ccc2c(c1)C(=O)N(Cc1ccco1)C2=O, the “activation” value is reported as inactive: -0.159%.
In the case of Cc1cccc(NC(=O)CCN2C(=O)C3C4C=CC(C4)C3C2=O)n1 (centres undefined), the Potency is reported as inconclusive [activator, single point].
For CC1CC(C)(C)Nc2ccc(OC(=O)c3ccco3)cc21 (centres undefined), the “activation” value was inactive: -3.62%.
For COc1cc(C2NC(=O)NC(C)=C2C(=O)OC2CCCC(C)C2)ccc1O (centres undefined), the Potency was inconclusive [activator, single point].
In the case of CCOC(=O)C1=C(O)C(Nc2nccs2)(C(F)(F)F)N=C1C (centres undefined), the Potency is reported as inconclusive [activator, single point].
In the case of CCc1cc(=O)oc2cc(OCc3nn[nH]n3)ccc12, the “activation” value is reported as inactive: -2.04%.
For COc1ccc(CNC(=O)C(C#N)c2nc3ccccc3nc2N2CCN(C)CC2)cc1 (centres undefined), the “activation” value was inactive: -19.7%.
For O=C(O)c1ccc(Cl)c(S(=O)(=O)Nc2ccccc2)c1, the “activation” value was inactive: -3.49%.
In the case of O=C(Nc1ccc(-c2nnc(-c3ccccc3)o2)cc1)c1ccc(Br)o1, the Potency is reported as inconclusive [activator, single point].
In the case of O=C(CSc1cn(CCNC(=O)c2cccs2)c2ccccc12)NCC1CCCO1 (centres undefined), the Potency is reported as inconclusive [activator, single point].
For CC(C)C(NC(=O)OCc1ccccc1)C(=O)OCC(=O)N1CCCCC1 (centres undefined), the “activation” value was inactive: 0.6%.
In the case of O=c1cc(CSc2nnc(COc3ccc(Cl)cc3)o2)c2ccccc2[nH]1, the Potency is reported as active: 25.1 µM.
With O=C(CSc1nc2scc(-c3ccco3)c2c(=O)n1-c1ccccc1)NCC1CCCO1 (centres undefined) the “activation” value was inactive: 17.7%.
For CP(=O)(COC(=O)c1ccccc1)COC(=O)c1ccccc1, the Potency was inconclusive [activator, partial curve].
